This passage reports binding results from paper PMC6605747.

Sequences of proteins named here, by UniProt entry; tags and fusion partners are left off. A change or cut given only in a name is not applied to a line headed by its entry. A line that says so, or that is headed by a name, gives the form on record, which may keep a tag or linker. Residues count along the entry.
UniProt Q63829: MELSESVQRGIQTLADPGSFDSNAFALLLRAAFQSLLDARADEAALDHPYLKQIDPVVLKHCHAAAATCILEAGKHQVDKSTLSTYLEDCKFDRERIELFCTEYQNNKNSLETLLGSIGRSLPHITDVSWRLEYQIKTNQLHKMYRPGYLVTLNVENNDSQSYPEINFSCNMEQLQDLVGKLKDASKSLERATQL
UniProt P70658: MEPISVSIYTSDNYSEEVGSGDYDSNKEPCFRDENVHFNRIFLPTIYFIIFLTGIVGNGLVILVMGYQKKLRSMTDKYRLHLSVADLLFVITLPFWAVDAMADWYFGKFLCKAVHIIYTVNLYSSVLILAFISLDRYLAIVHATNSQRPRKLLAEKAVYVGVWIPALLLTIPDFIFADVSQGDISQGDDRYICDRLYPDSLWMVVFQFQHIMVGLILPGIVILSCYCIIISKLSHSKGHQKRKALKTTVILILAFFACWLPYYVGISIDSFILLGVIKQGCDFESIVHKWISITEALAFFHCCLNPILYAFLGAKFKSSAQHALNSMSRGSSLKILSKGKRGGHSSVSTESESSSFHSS
CXCR4 S353-355A, Flag-tagged, C-terminally fused via a TEV protease cleavage site to tTA (P70658, form named): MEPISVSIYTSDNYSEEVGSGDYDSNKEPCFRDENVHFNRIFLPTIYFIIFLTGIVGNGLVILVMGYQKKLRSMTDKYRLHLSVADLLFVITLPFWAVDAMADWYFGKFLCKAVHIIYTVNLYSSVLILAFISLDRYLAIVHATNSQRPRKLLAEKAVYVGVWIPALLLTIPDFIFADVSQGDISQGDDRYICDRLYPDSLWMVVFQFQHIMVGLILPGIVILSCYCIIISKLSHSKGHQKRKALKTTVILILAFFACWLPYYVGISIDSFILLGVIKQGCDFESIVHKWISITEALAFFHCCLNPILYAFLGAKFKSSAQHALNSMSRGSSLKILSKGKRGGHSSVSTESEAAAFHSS
UniProt P18762: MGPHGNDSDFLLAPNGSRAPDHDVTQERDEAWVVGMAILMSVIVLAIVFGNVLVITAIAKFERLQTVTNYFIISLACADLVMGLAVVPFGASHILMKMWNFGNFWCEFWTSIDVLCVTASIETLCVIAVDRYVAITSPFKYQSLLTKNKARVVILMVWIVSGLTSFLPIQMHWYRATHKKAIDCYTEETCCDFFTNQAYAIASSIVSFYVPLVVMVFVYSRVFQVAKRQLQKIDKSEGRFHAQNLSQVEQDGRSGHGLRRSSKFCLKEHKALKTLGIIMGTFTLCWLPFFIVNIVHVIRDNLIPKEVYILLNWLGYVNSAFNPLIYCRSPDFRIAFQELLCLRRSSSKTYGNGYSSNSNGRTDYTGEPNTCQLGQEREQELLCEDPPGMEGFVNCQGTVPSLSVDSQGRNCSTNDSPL
UniProt P47774, residues 25-378: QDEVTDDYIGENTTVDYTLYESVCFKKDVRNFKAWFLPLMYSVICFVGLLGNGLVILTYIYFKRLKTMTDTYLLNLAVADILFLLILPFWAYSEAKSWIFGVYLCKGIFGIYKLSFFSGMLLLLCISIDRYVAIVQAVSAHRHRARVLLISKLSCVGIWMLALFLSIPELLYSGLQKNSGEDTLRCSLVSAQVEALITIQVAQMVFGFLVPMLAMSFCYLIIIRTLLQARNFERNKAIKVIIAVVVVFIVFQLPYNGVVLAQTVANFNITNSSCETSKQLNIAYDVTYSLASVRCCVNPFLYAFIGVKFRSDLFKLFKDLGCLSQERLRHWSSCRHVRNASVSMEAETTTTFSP
UniProt Q04683: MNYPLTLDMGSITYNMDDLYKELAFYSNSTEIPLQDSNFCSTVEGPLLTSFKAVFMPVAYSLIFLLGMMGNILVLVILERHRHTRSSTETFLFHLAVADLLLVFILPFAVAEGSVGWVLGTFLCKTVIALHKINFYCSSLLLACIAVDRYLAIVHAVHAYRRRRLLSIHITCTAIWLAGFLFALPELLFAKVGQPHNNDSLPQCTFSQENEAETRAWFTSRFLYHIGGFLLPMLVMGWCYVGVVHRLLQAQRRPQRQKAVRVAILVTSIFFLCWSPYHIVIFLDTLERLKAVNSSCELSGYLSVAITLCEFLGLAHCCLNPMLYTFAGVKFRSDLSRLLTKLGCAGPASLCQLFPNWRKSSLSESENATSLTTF
UniProt Q3U6B2: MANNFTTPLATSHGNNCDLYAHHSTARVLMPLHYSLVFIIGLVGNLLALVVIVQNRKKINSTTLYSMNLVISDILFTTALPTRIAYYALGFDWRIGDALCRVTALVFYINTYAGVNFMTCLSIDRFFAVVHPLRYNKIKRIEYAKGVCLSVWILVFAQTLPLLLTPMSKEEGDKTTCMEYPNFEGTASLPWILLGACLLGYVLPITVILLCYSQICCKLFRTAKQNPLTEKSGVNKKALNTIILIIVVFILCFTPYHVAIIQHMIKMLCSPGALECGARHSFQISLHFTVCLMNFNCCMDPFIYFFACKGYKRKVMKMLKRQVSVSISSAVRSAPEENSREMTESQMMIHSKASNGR
UniProt O08530: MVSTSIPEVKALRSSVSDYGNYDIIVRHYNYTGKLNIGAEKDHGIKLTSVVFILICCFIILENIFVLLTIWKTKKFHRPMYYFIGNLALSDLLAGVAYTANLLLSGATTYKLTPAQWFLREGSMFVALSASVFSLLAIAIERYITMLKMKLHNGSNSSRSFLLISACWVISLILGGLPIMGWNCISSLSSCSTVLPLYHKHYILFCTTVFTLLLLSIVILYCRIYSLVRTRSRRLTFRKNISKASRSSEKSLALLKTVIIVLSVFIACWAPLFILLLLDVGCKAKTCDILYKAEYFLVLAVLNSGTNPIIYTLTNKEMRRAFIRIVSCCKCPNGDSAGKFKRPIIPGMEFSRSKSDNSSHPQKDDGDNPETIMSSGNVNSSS
UniProt Q99MK8: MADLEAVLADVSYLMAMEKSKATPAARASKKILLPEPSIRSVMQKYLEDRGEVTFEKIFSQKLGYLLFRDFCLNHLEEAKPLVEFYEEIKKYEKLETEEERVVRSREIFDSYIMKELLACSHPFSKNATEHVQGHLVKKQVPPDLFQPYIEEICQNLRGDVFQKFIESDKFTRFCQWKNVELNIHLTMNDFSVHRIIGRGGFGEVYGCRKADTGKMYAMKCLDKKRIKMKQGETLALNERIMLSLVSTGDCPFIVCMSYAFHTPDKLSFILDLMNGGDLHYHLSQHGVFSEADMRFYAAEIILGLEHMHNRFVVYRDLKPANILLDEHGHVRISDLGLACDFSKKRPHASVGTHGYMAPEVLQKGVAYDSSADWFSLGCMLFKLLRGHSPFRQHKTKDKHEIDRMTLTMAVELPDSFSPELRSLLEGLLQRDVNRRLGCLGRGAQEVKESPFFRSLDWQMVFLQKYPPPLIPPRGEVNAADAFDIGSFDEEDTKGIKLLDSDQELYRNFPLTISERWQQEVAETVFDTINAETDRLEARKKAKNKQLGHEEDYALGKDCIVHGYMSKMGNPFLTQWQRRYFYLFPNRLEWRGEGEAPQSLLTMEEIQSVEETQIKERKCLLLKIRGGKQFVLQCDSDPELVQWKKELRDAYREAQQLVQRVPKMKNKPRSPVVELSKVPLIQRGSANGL
UniProt O70293: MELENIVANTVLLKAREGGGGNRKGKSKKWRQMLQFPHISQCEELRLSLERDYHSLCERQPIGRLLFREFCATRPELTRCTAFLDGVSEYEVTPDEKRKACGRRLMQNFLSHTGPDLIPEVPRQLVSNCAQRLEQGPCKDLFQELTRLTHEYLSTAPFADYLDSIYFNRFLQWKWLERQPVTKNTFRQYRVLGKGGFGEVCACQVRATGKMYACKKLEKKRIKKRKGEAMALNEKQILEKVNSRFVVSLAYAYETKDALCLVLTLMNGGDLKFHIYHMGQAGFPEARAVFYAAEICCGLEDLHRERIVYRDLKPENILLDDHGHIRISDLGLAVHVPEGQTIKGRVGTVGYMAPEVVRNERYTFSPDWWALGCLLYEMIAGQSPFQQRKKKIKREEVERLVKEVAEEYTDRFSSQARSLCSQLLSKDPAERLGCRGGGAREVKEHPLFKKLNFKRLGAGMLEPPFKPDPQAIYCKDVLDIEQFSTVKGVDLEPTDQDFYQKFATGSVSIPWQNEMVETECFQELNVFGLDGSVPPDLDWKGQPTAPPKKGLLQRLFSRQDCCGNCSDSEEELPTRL
UniProt Q91YI4: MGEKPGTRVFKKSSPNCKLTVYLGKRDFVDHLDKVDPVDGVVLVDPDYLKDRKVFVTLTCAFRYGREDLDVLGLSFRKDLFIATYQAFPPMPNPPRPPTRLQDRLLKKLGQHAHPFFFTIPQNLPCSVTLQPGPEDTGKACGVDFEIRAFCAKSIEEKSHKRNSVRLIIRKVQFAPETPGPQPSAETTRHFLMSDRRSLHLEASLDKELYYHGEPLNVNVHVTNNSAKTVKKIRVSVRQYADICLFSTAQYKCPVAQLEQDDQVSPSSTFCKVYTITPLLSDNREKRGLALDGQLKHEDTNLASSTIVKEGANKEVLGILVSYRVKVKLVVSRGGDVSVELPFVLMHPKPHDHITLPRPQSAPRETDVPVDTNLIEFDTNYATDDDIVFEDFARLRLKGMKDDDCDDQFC

These are yes or no findings as the source states them, for the method shown. For some of these results: In cells and extracts the contact can be indirect. Some binding calls cover weakened binding; strength is not graded here. For some of these results: Sequences can lack the tags named with a protein.

Experiment [1] has as its target T1, Myc-tagged COMMD8 (mouse) (mouse) (UniProt Q9CZG3).
T1 sequence: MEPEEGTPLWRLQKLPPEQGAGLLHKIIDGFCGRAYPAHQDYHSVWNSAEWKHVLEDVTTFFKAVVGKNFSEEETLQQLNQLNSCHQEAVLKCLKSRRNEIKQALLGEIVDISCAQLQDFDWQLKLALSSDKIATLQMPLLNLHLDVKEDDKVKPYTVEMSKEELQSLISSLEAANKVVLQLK
The experiment can be described thus: co-IP; tagged COMMD8, COMMD3 and their truncation mutants in transduced 2PK-3 cells; digitonin lysis buffer.

In experiment [2] the target is T2, COMMD8, endogenous, mouse (mouse (endogenous in spleen cells and primary B cells)) (UniProt Q9CZG3).
T2 sequence: T1 sequence
Briefly: co-IP; endogenous proteins in mouse spleen cells; digitonin lysis buffer (1% digitonin, 0.125% NP-40, 150 mM NaCl, 10 mM Tris-HCl, pH 7.2).

Experiment [3] addresses COMMD3 with a Myc or HA tag (mouse) (mouse) (UniProt Q63829). The experiment can be described thus: co-IP; transduced 2PK-3 cells, 30 min in RPMI with 0.5% fatty acid-free BSA, then stimulated with the receptor's ligand (CXCL12, CXCL13, CCL19, 7α,25-HC, S1P or clenbuterol); digitonin lysis buffer; also in GRK6-deficient cells.
Experiment [4] deals with T1, Myc-tagged COMMD8 (mouse) (mouse). Described as above.
Experiment [5] deals with Flag-tagged CXCR4 (mouse) (mouse) (UniProt P70658). The experiment can be described thus: co-IP; 2PK-3 cells (vector control, sgCommd8 or sgCommd3), 30 min or 2 h in HBSS with 10 mM Hepes, then CXCL12 (100 ng/ml) or isoproterenol (1 µM); digitonin lysis buffer.
Experiment [6] concerns the target Flag-tagged β2AR (mouse) (mouse) (UniProt P18762). The description is as above.
In experiment [7] the target is Flag-tagged CCR7 (mouse) (mouse) (UniProt P47774). The experiment can be described thus: co-IP; transduced 2PK-3 cells, 30 min in RPMI with 0.5% fatty acid-free BSA, then stimulated with the receptor's ligand (CXCL12, CXCL13, CCL19, 7α,25-HC, S1P or clenbuterol); digitonin lysis buffer; also in GRK6-deficient cells.
Experiment [8] has as its target Flag-tagged CXCR4 (mouse) (mouse) (UniProt P70658). The description is as above.
Experiment [9] concerns the target Flag-tagged CXCR5 (mouse) (mouse) (UniProt Q04683). The experiment is described as above.
Experiment [10] addresses Flag-tagged EBI2 (mouse) (mouse) (UniProt Q3U6B2). The experiment is described as above.
Experiment [11] has as its target Flag-tagged S1PR1 (mouse) (mouse) (UniProt O08530). The experiment is described as above.
For experiment [12], the target named is CXCR4 S353-355A, Flag-tagged, C-terminally fused via a TEV protease cleavage site to tTA (mouse) (UniProt P70658). Briefly: Tango assay (TEV protease cleavage releases tTA, luciferase reporter); HTL cells transfected with GPCR-TEV cleavage site-tTA and COMMD8-TEV protease; stimulated with CXCL12 (10 ng/ml) or isoproterenol (1 nM) for 12 h; with or without paroxetine. (A reporter such as luciferase makes a cellular process visible.)

The target in experiment [13] is Flag-tagged mouse CXCR4 C-terminally fused via a TEV protease cleavage site to tTA (mouse) (UniProt P70658). Described as above.
Experiment [14] concerns the target CXCR4, endogenous, mouse primary B cells (mouse (endogenous in primary B cells)) (UniProt P70658). The experiment can be described thus: co-IP; endogenous proteins in mouse primary B cells stimulated with CXCL12 (600 ng/ml); digitonin lysis buffer.

Turning to “COMMD3 with a Myc or HA tag (mouse) (from UniProt Q63829 1-195)”, the binding result in experiment [1] is reported as “binds”.
In the case of “COMMD3, endogenous, mouse (from UniProt Q63829 1-195)”, in experiment [2], the binding result is “binds”.
Turning to “HA-tagged GRK2 (mouse) (from UniProt Q99MK8 1-689) (enzyme)”, the binding entry in [3] and in experiment [4] was “no binding” each time.
For the molecule “HA-tagged GRK6 (mouse) (from UniProt O70293 1-576) (enzyme)”, the binding entry in experiment [3] and in experiment [4] was “binds” throughout.
Consider “β-arrestin-2, endogenous, 2PK-3 cells (from UniProt Q91YI4 1-410)”, for which the binding entry in [5] and in [6] was “binds” each time.

B1: Myc-tagged COMMD8 (mouse) (protein, UniProt Q9CZG3 1-183)
chain: T1 sequence
Regarding B1, the binding result is reported as “binds” in experiment [7]; “binds” in experiment [8]; “binds” in experiment [9]; “binds” in experiment [10]; “binds weakly” in [11].

B2: Myc-tagged COMMD8 C-terminally fused to TEV protease (protein, UniProt Q9CZG3 1-183)
chain: T1 sequence
With B2, the values for the binding entry in experiment [12] and in [13] were “no binding” and “binds”, respectively.

B3: COMMD8, endogenous, mouse (protein, UniProt Q9CZG3 1-183)
chain: T1 sequence
For B3, in experiment [14], the binding result was “binds”.
